About 2,200 (0.71%) of roughly 310,000 compounds showed an effect of 50% or more. The effect is printed as a negative number. This is one part of the list.

In the experiment the target is human ether-à-go-go-related gene (hERG) potassium channel (human, UniProt Q12809). Description: primary screen, population patch clamp on CHO cells stably expressing hERG.
human ether-à-go-go-related gene (hERG) potassium channel, sequence (Q12809 whole entry, looked up): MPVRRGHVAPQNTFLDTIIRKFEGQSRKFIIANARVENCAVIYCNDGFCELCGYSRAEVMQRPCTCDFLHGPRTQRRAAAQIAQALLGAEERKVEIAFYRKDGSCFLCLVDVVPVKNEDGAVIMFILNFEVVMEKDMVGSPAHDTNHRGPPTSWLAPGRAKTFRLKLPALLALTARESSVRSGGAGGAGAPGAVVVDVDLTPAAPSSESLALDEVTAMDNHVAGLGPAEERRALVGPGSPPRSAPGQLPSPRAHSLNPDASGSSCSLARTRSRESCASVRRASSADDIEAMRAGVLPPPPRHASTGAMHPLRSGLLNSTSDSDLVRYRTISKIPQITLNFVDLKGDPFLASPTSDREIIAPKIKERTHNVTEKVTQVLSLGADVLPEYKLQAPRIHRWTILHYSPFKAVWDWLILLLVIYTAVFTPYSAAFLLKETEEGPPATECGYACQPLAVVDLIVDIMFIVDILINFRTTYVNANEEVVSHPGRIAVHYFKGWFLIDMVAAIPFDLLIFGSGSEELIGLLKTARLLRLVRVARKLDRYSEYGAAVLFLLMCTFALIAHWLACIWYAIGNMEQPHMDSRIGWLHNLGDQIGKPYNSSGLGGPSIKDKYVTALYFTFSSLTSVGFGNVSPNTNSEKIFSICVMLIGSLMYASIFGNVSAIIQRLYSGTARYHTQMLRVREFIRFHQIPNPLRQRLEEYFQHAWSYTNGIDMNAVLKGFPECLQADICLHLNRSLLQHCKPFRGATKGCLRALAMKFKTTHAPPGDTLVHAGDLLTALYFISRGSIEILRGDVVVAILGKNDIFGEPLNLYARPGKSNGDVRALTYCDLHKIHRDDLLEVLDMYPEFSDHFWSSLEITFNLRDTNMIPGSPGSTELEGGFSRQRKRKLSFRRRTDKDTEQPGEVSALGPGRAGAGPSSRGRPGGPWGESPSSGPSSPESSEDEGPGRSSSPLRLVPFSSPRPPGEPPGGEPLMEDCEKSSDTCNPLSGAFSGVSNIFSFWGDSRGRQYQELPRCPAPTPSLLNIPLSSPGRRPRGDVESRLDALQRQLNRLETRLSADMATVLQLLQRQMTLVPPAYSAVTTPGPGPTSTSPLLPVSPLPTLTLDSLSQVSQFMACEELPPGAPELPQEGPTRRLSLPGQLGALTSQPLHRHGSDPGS
With `COc1ccc(Nc2oc(-c3ccccc3Cl)nc2C#N)cc1`, the “hERG current change (%, negative = inhibition) at 1uM” value stood at 3.38%.

For `FC(F)=C(F)CCSc1ncn[nH]1`, the “hERG current change (%, negative = inhibition) at 1uM” value is given as 6.42%.

In the case of `CC(C)C(OC(=O)C1=Cc2ccccc2OC1)C(=O)NC1CCCC1` (stereo not shown), the “hERG current change (%, negative = inhibition) at 1uM” value is given as 10.6%.

For the compound `CC1CCC2(CC1)NC(=O)N(CC(=O)NCc1ccc(F)cc1)C2=O` (stereo not shown), the “hERG current change (%, negative = inhibition) at 1uM” value is given as 0.473%.

Consider `COC(=O)C(O)(c1ccc(N(C)C(=O)c2cccs2)cc1)C(F)(F)F` (stereo not shown), for which the “hERG current change (%, negative = inhibition) at 1uM” value is given as 8.46%.

Take `CCN(c1ccccc1)S(=O)(=O)c1ccc(C(=O)Oc2ccc(C(C)=O)cc2)cc1`: the “hERG current change (%, negative = inhibition) at 1uM” value is 6.7%.

Regarding `Cc1cc(NC(=O)C2CC2)ccc1NC(=O)c1cccs1`, the “hERG current change (%, negative = inhibition) at 1uM” value is 12.7%.

For `COc1ccc(C(CC(=O)c2ccc(O)cc2)S(=O)(=O)c2ccc(C)cc2)cc1` (stereo not shown), the “hERG current change (%, negative = inhibition) at 1uM” value is on record as 12.3%.

Take `CCCCn1nnnc1NCc1cc(OC)c(OC)cc1OC`: the “hERG current change (%, negative = inhibition) at 1uM” value was determined as 6.58%.

In the case of `COc1ccc(C)cc1Nc1n[n+](-c2ccccc2)c(-c2ccc(SC)cc2)s1.[Cl-]`, the “hERG current change (%, negative = inhibition) at 1uM” value is listed as 10.6%.

As for `O=C(CCCc1ccccc1)NC12CC3CC(CC(C3)C1)C2`, the “hERG current change (%, negative = inhibition) at 1uM” value is on record as 9.41%.

`CC1CCN(C(=O)c2[nH]cnc2C(=O)N2CCN(c3ccccc3)CC2)CC1`: the “hERG current change (%, negative = inhibition) at 1uM” value was 12.2%.

For the compound `c1ccc2c(c1)CNc1ccccc1C2`, the “hERG current change (%, negative = inhibition) at 1uM” value was 10.1%.

Turning to `CCOc1cc(C(=O)N2CCc3cc(OC)c(OC)cc3C2)ccc1OC(F)F`, the “hERG current change (%, negative = inhibition) at 1uM” value was -13%.

As for `COc1ccc(CCNC(=O)C(=O)NCCC2CCCCN2S(=O)(=O)c2cccs2)cc1` (stereo not shown), the “hERG current change (%, negative = inhibition) at 1uM” value was 8.49%.

Consider `CC(C)Sc1nnc([C@@H](N)Cc2c[nH]c3ccccc23)o1.Cl`, for which the “hERG current change (%, negative = inhibition) at 1uM” value was found to be 15.3%.

For `CC(C)(C)OC(=O)N1CCC(C(=O)N[C@@H](Cc2c[nH]c3ccccc23)C(=O)O)CC1`, the “hERG current change (%, negative = inhibition) at 1uM” value is on record as 14.8%.

As to `Cl.OC(COCc1ccccc1)CN1CCc2ccccc2C1` (stereo not shown), the “hERG current change (%, negative = inhibition) at 1uM” value worked out at 5.42%.

In the case of `CCCCN1C(=O)C2C(C(=O)Nc3cccc(OC)c3)C3C=CC2(O3)C1C(=O)NC1CCCCC1C` (stereo not shown), the “hERG current change (%, negative = inhibition) at 1uM” value turned out to be 10.9%.

In the case of `Cc1ccccc1C(=O)N1CCN(c2ncccn2)CC1`, the “hERG current change (%, negative = inhibition) at 1uM” value is given as 13.7%.

Regarding `C/C(Cc1ccccc1)=N\NC(=O)CNC(=O)c1ccc(Cl)cc1`, the “hERG current change (%, negative = inhibition) at 1uM” value is 3.68%.

With `COc1ccc(S(=O)(=O)NCC2CCCN(C(=O)CN3CCCCC3)C2)cc1` (stereo not shown), the “hERG current change (%, negative = inhibition) at 1uM” value is reported as -4.03%.

As for `CCSC(SCC)[C@H](O)[C@@H](O)[C@H](O)[C@H](O)CO`, the “hERG current change (%, negative = inhibition) at 1uM” value came out at 6.8%.

`C=CCn1c(COc2ccc(F)cc2)nnc1SCC(=O)NC1CCCC1`: the “hERG current change (%, negative = inhibition) at 1uM” value was -0.981%.

With `CCCC(=O)Nc1ccc(NC(=O)c2ccccn2)cn1`, the “hERG current change (%, negative = inhibition) at 1uM” value was 4.46%.

For the origin of these results see article PMC4336329 (PLoS ONE, 2015).
